Measured values published in PubChem BioAssay AID1745853 (National Center for Advancing Translational Sciences (NCATS), 2022).
The list shows a part of the results. These are further read-outs of the screen, such as a control signal, another cell line or another target. No call is given for them.

Assays:
Assay in all cases: Primary Screen for Target Class Profiling of Small Molecule Inhibitors of Methyltransferases
[1] = target: Glycine N-methyltransferase (Homo sapiens) (UniProt Q14749); conditions: purified enzyme, MTase-Glo SAH luminescence; measured here: GNMT inhibition; at 40 µM; stronger effect = lower value
Procedure, shortened: (§1)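 Each enzyme was assayed with SAM and its substrate. SAH formation detected by MTase-Glo luminescence; single-point 40 uM screen[…].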

[2] = target: Guanidinoacetate N-methyltransferase (Homo sapiens) (UniProt Q14353); conditions: purified enzyme, MTase-Glo SAH luminescence; measured here: GAMT inhibition; at 40 µM; stronger effect = lower value
Procedure, shortened: as §1

[3] = target: Histamine N-methyltransferase (Homo sapiens) (UniProt P50135); conditions: purified enzyme, MTase-Glo SAH luminescence; measured here: HNMT inhibition; at 40 µM; stronger effect = lower value
Procedure, shortened: as §1

[4] = target: Nicotinamide N-methyltransferase (Homo sapiens) (UniProt P40261); conditions: purified enzyme, MTase-Glo SAH luminescence; measured here: NNMT inhibition; at 40 µM; stronger effect = lower value
Procedure, shortened: as §1

[5] = target: Phenylethanolamine N-methyltransferase (Homo sapiens) (UniProt P11086); conditions: purified enzyme, MTase-Glo SAH luminescence; measured here: PNMT inhibition; at 40 µM; stronger effect = lower value
Procedure, shortened: as §1
On the % scale 0 is the no-effect control and ±100 the full control effect.

Compound	activity change, negative = inhibition [1]	activity change, negative = inhibition [2]	activity change, negative = inhibition [3]	activity change, negative = inhibition [4]	activity change, negative = inhibition [5]
CCOCCCNC(=O)c1cc2n(n1)CC(C)(C(=O)NCc1ccc(F)cc1)N(C)C2=O (stereo not given)	2.01%	1.29%	-2.74%	2.73%	-1.31%
Cc1ccc2c(c1)c1c3n2CCN(C(=O)c2ccccc2Cl)C3CCC1 (stereo not given)	-4.01%	-2.21%	-8.02%	-21.3%	-9.04%
CCOc1ccc(CCN2C(=O)c3cc4ccccc4n3CC2(C)C(=O)NC2CCCC2)cc1 (stereo not given)	3.69%	4.62%	1.26%	4.04%	-0.81%
CC1(CO)CCCC2(C)C1C(OC(=O)c1ccccc1)CC1C(=O)OCC12O (stereo not given)	0%	-6.68%	9.04%	-6.4%	7.62%
C[C@H](Oc1cc(-c2cnn(C3CCNCC3)c2)cnc1N)c1c(Cl)ccc(F)c1Cl	-41.8%	-21.5%	-65.9%	-64.6%	-40.3%
CCCC(=O)N1CCC(N2C(=O)N(Cc3cccnc3)CC23CCOC3)CC1 (stereo not given)	-2.83%	-11.7%	-5.21%	-10.2%	-9.69%
CC(C)C(Oc1ccccc1)C(=O)N1CCc2c(ncnc2N(C)C)C1 (stereo not given)	-1.47%	0.616%	1.34%	-8.34%	-4.59%
CC1(C)SC2C(NC(=O)[C@H](NC(=O)N3CCNC3=O)c3ccccc3)C(=O)N2C1C(=O)O (stereo not given in full)	-1.28%	6.5%	2.9%	-10.5%	-3.29%
CC(=O)Nc1ccc(S(=O)(=O)N2C[C@@H]3C[C@H](C2)c2c(-c4ccc(OC(F)(F)F)cc4)ccc(=O)n2C3)cc1	-6.76%	-6.02%	-2.46%	-19.3%	-6.23%
COc1cccc(C(=O)N(C)Cc2ccccc2C(F)(F)F)c1	-4.59%	2.3%	0.644%	-9.84%	-2.22%
CCOc1ccc(CNC(=O)C(C)n2ccc3cc(S(=O)(=O)N4CCCC4)ccc32)cc1OC (stereo not given)	-3.54%	-1.15%	-1.11%	-12.8%	-5.8%
COCc1ccc2c(c1)c(OC(C)(C)C(=O)N1CCN(C)CC1)nn2Cc1ccccc1	-3.92%	-1.09%	-0.314%	-15.3%	-6.69%
CCOC(=O)c1cccc(N2C(=O)Cn3cccc3C2C(=O)NC2CCCCC2C)c1 (stereo not given)	3.73%	1.24%	9.88%	12.1%	1.36%
Cc1ccc(Cn2c(=O)c3ccccc3n3c(-c4cccc(O)c4)nnc23)cc1	-6.14%	0%	6.48%	3.77%	1.35%
O=Cc1ccc(N2CCN([S+](=O)([O-])C3CC3)CC2=O)cc1	-6.23%	-3.71%	-3.94%	-5.78%	-1.58%
CC(C)C(O)(CO)CCO[C@@H]1O[C@H](CO[C@H]2OC[C@](O)(CO)[C@H]2O)[C@@H](O)[C@H](O)[C@H]1O (stereo not given in full)	0.09%	7.35%	11.9%	-4.25%	2.29%
CCCN1CCN(CCCNC(=O)c2cc3n(n2)CC(C)(C(=O)NCc2ccccc2)N(C)C3=O)CC1 (stereo not given)	1.39%	1.35%	4.19%	3.28%	1.23%
CC1(C)CC[C@]2(C(=O)O)[C@H](O)C[C@]3(C)C(=CCC4[C@@]5(C)CC[C@H](O[C@@H]6OC[C@@H](O)[C@H](O)[C@H]6O)[C@@](C)(C(=O)O)C5CC[C@]43C)[C@@H]2C1 (stereo not given in full)	0%	5.84%	9.61%	-7.55%	0.994%
COc1ccc(-c2cc3n(n2)CC(C)(C(=O)NC2CCCCC2)N(Cc2ccccc2C)C3=O)cc1 (stereo not given)	0.786%	0%	4.03%	9.92%	1.14%

Compound	activity change, negative = inhibition [1]	activity change, negative = inhibition [2]	activity change, negative = inhibition [3]	activity change, negative = inhibition [4]	activity change, negative = inhibition [5]
NCc1c[nH]c(=S)n1[C@@H]1CCc2c(F)cc(F)cc2C1	4.58%	5.31%	3.54%	-14.6%	-2.82%
CN1CCC[C@H]1c1nc(-c2ccc(F)cn2)no1	-10.1%	-11.3%	-8.69%	-17.4%	-11.7%
O=c1[nH]c(-c2ccc(F)cc2)nc2c1CCN(S(=O)(=O)c1cccs1)C2	-4.19%	-1.78%	-1.69%	-0.808%	-8.02%
O=C(NC(Cc1c[nH]c2ccccc12)C(=O)O)c1ccc(Cl)cc1 (stereo not given)	2.12%	0%	8.25%	9.39%	2.14%
OC(CCN1CCCCC1)(c1ccccc1)C1CCCCC1 (stereo not given)	4.26%	13.1%	15.1%	-6.9%	-3.51%
CC1(C)OC[C@H](NC(=O)Nc2ccc(Br)cc2Br)[C@H](c2ccccc2)O1	2.62%	-1.96%	6.62%	-15.7%	2.06%
CC(C)CCNC(=O)CCc1nnc2n(CCC(C)C)c(=O)c3ccccc3n12	-4.5%	4.63%	4.69%	8.13%	-1.94%
COc1ccccc1NC(=O)Nc1ccc2n(c1=O)C[C@H]1C[C@@H]2CN(C(=O)Cc2cccs2)C1	0.818%	1.8%	0.955%	-2.01%	4.74%
COc1ccccc1CNC(=O)C1(C)Cn2c(cc3ccccc32)C(=O)N1Cc1ccco1 (stereo not given)	-3.4%	0.89%	-0.2%	-6.73%	-6.91%
CNC(=O)[C@@H]1CN(C(=O)c2ccoc2C)C[C@H]1c1nc(C)no1	-3.15%	-3.18%	0.859%	-5.67%	-3.09%
C=CCC1(C(=O)O)CCCN(C(=O)Cc2c[nH]c(=O)n(C)c2=O)C1 (stereo not given)	-1.22%	-0.241%	1.67%	-2.26%	1.87%
N#C/C(=C\c1ccc(O)c(O)c1)C(=O)NCCCNC(=O)/C(C#N)=C/c1ccc(O)c(O)c1	-81.7%	-17.9%	-53.9%	-21.5%	-18.3%
CC1=CC(=O)[C@H]2C(C)(C)CCC[C@]2(C)[C@@]1(O)CO	1.73%	4.82%	0.767%	-7.66%	5.34%
COc1ccc(C[C@H](C)NC[C@@H](O)c2ccc(O)c(NC=O)c2)cc1	5.01%	2.85%	1.27%	-5.89%	2.64%
CCc1ncc2c(N3CC4CCC(C3)N4CC(F)(F)F)nc3ccccc3n12	-22.5%	-5.42%	-7.97%	-28.5%	-8.48%
CCc1ccccc1N1C(=O)c2cc3ccccc3n2CC1(C)C(=O)NCc1ccccc1OC (stereo not given)	2.62%	0.086%	6.32%	5.01%	0.088%
CS(=O)(=O)N1CCC2(CC1)CN(C(=O)c1ccc(Cl)cc1)CCO2	-3.51%	-6.63%	-4.38%	-7.87%	-5.03%
CC1CCN(S(=O)(=O)c2ccc3c(ccn3CCC(=O)NCc3ccccc3F)c2)CC1	-0.595%	3.67%	-0.13%	-4.87%	-3.68%
Cc1ccc(CCNC(=O)CCc2nnc3n(CCc4ccccc4)c(=O)c4ccccc4n23)cc1	-4.38%	0%	8.6%	-0.812%	1.27%
